Test results reported in PubChem BioAssay AID1508624 (National Center for Advancing Translational Sciences (NCATS), 2021).
Hit rate of the full screen: of about 48,000 compounds, about 120 (0.25%) were called active. Roughly 4% stayed inconclusive and do not appear here. The call rests on the fitted dose curve; in most records, active means well fitted activation curve with a large enough effect; inconclusive means small, poorly fitted or top-dose-only effect, or another doubt; inactive means no such curve, though single readings can be large or run the other way. This is one part of the list.

Test: Primary qHTS for Identification of Small Molecule Activators of Huntingtin-Antisense Promoter Activity; further: nearly all actives have a fitted effect of over 55% in size
Conditions: HEK293 HTT-AS promoter firefly luciferase reporter, 24 h; series mostly up to 57.5 µM; activity change, positive = activation: at the top concentration
Summary of the method: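 HEK293 luciferase promoter-reporter cells (2,500/well) plated 24 h, then compounds added at up to 57.5 uM final for 24 h at 37 °C. Firefly luminescence by Dual-Glo, normalized to vehicle (0%) and zero RLU (-100%).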

Activity change, positive = activation, inactive:
Cc1c2cnn(CC(=O)Nc3cccc(C(F)(F)F)c3)c(=O)c2c(C)n1Cc1ccccc1Cl -18.8%
CCOC(=O)N1CCc2c(sc3c2c(=O)n(-c2ccc(CC)cc2)c(=O)n3CC(=O)c2ccc(F)cc2)C1 -13.6%
COc1cc(C(=O)Nc2ccc3nc(SCc4ccccc4)sc3c2)cc(OC)c1OC -30%
CCN(C(=O)CSc1nc2ccccc2n1Cc1cc(C)ccc1C)c1ccccc1 -19%
Cc1c2cnn(CC(=O)NC(C)C)c(=O)c2c(C)n1Cc1ccccc1Cl 11.1%
O=C(Cn1nc(-c2ccc(Cl)cc2)ccc1=O)NCc1ccccc1Cl -5.09%
Cc1nnc(NS(=O)(=O)c2ccc(N)cc2)s1
COc1cccc(C2C(C(=O)Nc3ccc(C)cc3C)=C(C)Nc3c(C(=O)Nc4cccc(C)c4)cnn32)c1OC (stereo unspecified) -6.78%
COc1cccc(N2CCN(C3C(=O)c4ccccc4N3C(C)=O)CC2)c1 (stereo unspecified) -16.9%
COc1ccc(N2CCN(C(=O)c3ccc(-c4nc(COc5ccccc5)c(C)o4)cc3)CC2)cc1 -1.34% [at 11.5 µM, percent change from vehicle, -100% = no light]
CCCNC(=O)C1CCC(Cn2c(=O)c3sccc3n(CC(=O)N3CCC(C)CC3)c2=O)CC1 (stereo unspecified) -9.8%
Cc1cccc(OCC(=O)N(Cc2sccc2C)C2CCS(=O)(=O)C2)c1 (stereo unspecified) -12.9%
O=C(NCc1cccc(Cl)c1)C1CCN(C(=O)c2sccc2-n2cccc2)CC1 -22.5%
CCc1ccc(C(=O)c2cn(CC(=O)Nc3ccc(OC)cc3OC)c3ccc(CC)cc3c2=O)cc1 -18.6%
COc1cccc(C(=O)Nc2cccc(C(=O)OCc3cc(=O)n4nc(C(C)C)sc4n3)c2)c1 29.7%
CC(=O)N1CCC(N(C(=O)Nc2c(F)cccc2F)C(C)C)CC1 -1.82%
Cc1ccc(N(C)C(=O)c2cnc(N3CCOCC3)c3ccccc23)cc1C -13%
COc1ccc(OC)c(CNC(=O)Cc2ccc(NC(=O)N3CCCCc4ccccc43)cc2)c1 -12.5%
COCCCNC(=O)c1c(NC(=O)Cc2coc3cc(C)cc(C)c23)sc2c1CCCC2 -16.9%
CCc1ccc(CNC(=O)CSc2cc(=O)n(C)c3ccc(Cl)cc23)cc1 -15.1%
CCN(CCCNC(=O)c1cc2c(=O)n(CC)c3ccccc3c2s1)c1ccccc1 -24.9%
COc1ccc(-c2cc(-c3ccccc3)nc(SCC(=O)CC(=O)OC(C)C)c2C#N)cc1 -17.2%
O=C(c1ccc2c(c1)N(Cc1ccccc1F)C(=O)c1ccccc1S2(=O)=O)N1CCCC1 -14.3%
COc1ccc(C(=O)N(Cc2cc(OC)c(OC)c(OC)c2)CC2CCCO2)cc1 (stereo unspecified) -13.1%
Cc1cc(F)ccc1NCc1ccccc1-c1nnc(-c2ccccc2Cl)o1 17.6%
O=C(NCC(c1cccnc1)N1CCc2ccccc21)c1cccc(C(F)(F)F)c1 (stereo unspecified) -27%
Cc1ccc(-c2noc(-c3nnn(CC(=O)Nc4cc(C)cc(C)c4)c3N)n2)cc1 -0.0283%
CCCNC(=O)CSc1nc2nc(C)c(Cc3ccccc3Cl)c(C)n2n1 -0.796%
COc1ccc(CCCc2nnc(SCC(=O)Nc3ccc(C)cc3C)o2)cc1 -13.6%
CCN(CC)S(=O)(=O)c1cc(-c2onc(C)c2C)ccc1OC -13.2%
O=S(=O)(NCc1cccc(Br)c1)c1ccc(-c2cc(C(F)(F)F)on2)s1 -23.8%
COc1ccccc1CNC(=O)CN1C(=O)COc2ccc(S(=O)(=O)N3CCCCC3)cc21 -6.88%
Cc1cc(C)cc(N2C(=O)N(CC(=O)c3ccc(Br)cc3)c3ccccc3S2(=O)=O)c1 -13.6%
COC(=O)c1sccc1S(=O)(=O)N(CC(=O)NCc1ccc(C)cc1)c1ccc(Cl)cc1 -34.8%
COc1ccc(C(=O)Nc2ccc3nc(SCC(=O)N4CCCc5ccccc54)sc3c2)cc1 -27.7%
CCN(CC)C(=O)c1sc2c(c1C)c(=O)n(-c1ccc(Cl)c(Cl)c1)c(=O)n2Cc1cc(=O)n2c(C)cccc2n1 -14.6%
CCCCn1cc(S(=O)(=O)c2ccc(OC)cc2)c(=O)c2cc(F)c(N3CCCC3)cc21 -4.23%
Cc1ccc(-c2nc(C)c(CCNS(=O)(=O)c3ccccc3F)s2)cc1 -2.98%
CN1C(=O)C(C)(C)c2cc(S(=O)(=O)NCc3ccc(C(=O)Nc4ccc(Cl)cc4)cc3)ccc21 -60.3%
Cc1cccc(NC(=O)N2CCC(CN3CCc4ccccc4C3)CC2)c1C -11.8%
CCOc1ccc(NC(=O)Cn2cc(C(=O)c3ccc(C)c(C)c3)c(=O)c3cc4c(cc32)OCCO4)cc1 -18.1%
CCOc1ccc(-c2nc(SCC(=O)NCCOC)c(-c3ccc(OC)c(OC)c3)[nH]2)cc1 -9.45%
CCc1ccc(-n2nc(C)c3c(C(=O)Nc4cc(OC)cc(OC)c4)cc(C)nc32)cc1 -24.7%
CSc1nc2sc3c(c2c(=O)n1-c1ccc(F)c(Cl)c1)CCN(C(C)=O)C3 -13.2%
Cc1cc(C)cc(NC(=O)CSc2nc(-c3cccc(Cl)c3)nc3c2Cc2c(CO)cnc(C)c2O3)c1 -9.88%
COc1ccc(CNC(=O)Cn2c(SCC(=O)Nc3ccc(C)c(C)c3)nc3ccccc32)cc1 -44%
O=C(CSC1=Nc2ccccc2C2=NC(Cc3ccccc3)C(=O)N12)Nc1ccccc1F (stereo unspecified) -3.2%
CCOC(=O)NC1(C(F)(F)F)NC(=O)N(c2ccc(C)c(C)c2)C1=O (stereo unspecified) -23.7%
COc1ccc(S(=O)(=O)NCCc2csc(-c3ccc(F)cc3)n2)cc1 -0.976%
Cc1cc(C)cc(OCC(=O)Nc2ccc(S(=O)(=O)Nc3onc(C)c3C)cc2)c1 -13.2%
COc1ccc(-n2nc(C(=O)Nc3cccc(C(F)(F)F)c3)c3c4ccccc4n(C)c3c2=O)cc1 -7.7%
Cc1nn(CC(=O)NCc2ccccc2Cl)c(=O)c2nn(-c3ccccc3)c(C)c12 -18%
Cc1ccccc1NC(=O)CSC1=Nc2ccccc2C2=NC(CCC(=O)NCc3ccccc3)C(=O)N12 (stereo unspecified) -22.2%
CCN1CCC[C@H]1CNC(=O)c1c(OC)ccc(Br)c1OC -6.02%
CCN1CCN(c2cc3c(cc2F)c(=O)c(C(=O)O)cn3C2CC2)CC1 -1.91%
CCCCn1c2ccc(F)cc2c2nnc(SCCN(CC)CC)nc21 -7.32%
Cc1ccc(CNC(=O)c2c3c(nc4ccccc24)C(=O)N(C2CCCCC2)C3)cc1 -23.2%
FC(F)c1nc2ccccc2n1-c1nc(N2CCOCC2)nc(N2CCOCC2)n1 -23%
COc1ccc(Cl)cc1NC(=O)CSc1nccn1Cc1ccco1 0.0803%
Cc1csc2nc(COC(=O)c3ccccc3NC(=O)c3ccc(F)cc3)cc(=O)n12 -17.5%
COc1cccc(NC(=O)CSc2nc3ccccc3nc2N2CCOCC2)c1 -18.5%
CCc1ccc(CN2C(=O)c3ccccc3C2C(=O)NCCc2ccc(OC)c(OC)c2)cc1 (stereo unspecified) -16.8%
CN(CC(=O)Nc1cccc(C(F)(F)F)c1)S(=O)(=O)c1ccc2[nH]c3c(c2c1)CCCC3 -28%
COc1ccc(NC(=O)c2cc3c(=O)[nH]c4ccccc4c3n2C)cc1Cl -6.36%
CCCN(C(=O)CCc1nc(-c2ccccc2F)no1)c1ccc(CC)cc1 -15.3%
COc1ccc(CC(=O)NCc2nc3cccnc3n2Cc2ccc(F)cc2)cc1OC -10.7%
Cc1ccccc1NC(=O)c1sc2nc3c(cc2c1N)CCCC3 14.4%
Cc1ccc(C)c(N2CCN(C(=O)c3ccc(CS(=O)(=O)c4ccc(Br)cc4)o3)CC2)c1 -35%
CCOc1cc2[nH]c(=O)n(Cc3ccc(C(=O)NCCN(CC)CC)cc3)c(=O)c2cc1OCC -4.73%
CCN(C(=O)c1oc2ccc(S(=O)(=O)N3CCCCCC3)cc2c1C)c1ccccc1 -8.87%
CCOC(=O)c1cccc(NC(=O)CN2C(=O)CC(C)(C)Sc3ccccc32)c1 -12.5%
CCOC(=O)c1cc(S(=O)(=O)N2CCN(c3ccc(OC)cc3)CC2)[nH]n1 -9.32%
Cc1cccc(C)c1OCc1nc2c3cnn(-c4cccc(F)c4)c3ncn2n1 -0.652%
Cc1ccc(-n2ncc(C(=O)NCCN3CCc4ccccc4C3)c2C2CCN(C(=O)OC(C)(C)C)CC2)cc1 -32.3%
COc1ccc(CCNC(=O)CCCn2c(=O)c3ccccc3n(Cc3ccccc3C)c2=O)cc1OC -13.5%
Cc1ccc(Nc2c(-c3ccc(N4CCOCC4)cc3)nc3ncccn23)cc1 -6.35%
Cc1ccc(C(=O)Nc2c(C(=O)NCc3ccc(Cl)cc3)sc3nc(C)cc(C)c23)cc1 -22.6%
CCOc1ccc(NC(=O)Cn2c(=O)n(CCc3ccccc3)c(=O)c3c4c(sc32)CN(C(C)=O)CC4)cc1 -21.8%
CCc1ccc(NC(=O)CSC2=Nc3ccccc3C3=NC(CCC(=O)NCc4ccccc4OC)C(=O)N23)cc1 (stereo unspecified) 0.351%
CCOCCCNC(=O)c1cnc2sc(N3CCCCCC3)nn2c1=O -4.3%
Cc1ccc(CC(=O)N(Cc2nc(-c3ccc(C)cc3)no2)C(C)C)cc1 -27.6%
O=C(CCc1nc(-c2ccccc2F)no1)Nc1cccc(C(F)(F)F)c1 -30.4%
Cc1nn(-c2ccccc2)c(OC(=O)c2ccc(Br)cc2)c1S(=O)(=O)c1ccccc1 -20.4%
CCOc1ccc(OCC)c(NC(=O)c2cc(C)nc3c2c(C)nn3-c2cccc(Cl)c2C)c1 -6.62%
Cn1c(=O)c2sccc2n2c(CCCC(=O)Nc3ccc(F)cc3F)nnc12 -11.9%
COCCCNc1ncnc2c1c(-c1ccccc1)cn2-c1ccc(C)c(Cl)c1 -6.93%
CCn1c(CN2CCN(c3cccc(Cl)c3)CC2)nc2c1c(=O)[nH]c(=O)n2C -33.6%
O=C(COc1ccc(Cl)cc1)Nc1cc(-c2ccccc2)no1 16.3%
C[C@@H]1C[C@H]2[C@@H]3CCC4=CC(=O)C=C[C@]4(C)[C@@]3(F)[C@@H](O)C[C@]2(C)[C@@]1(O)C(=O)CO 3.12%
OC1(c2ccc(Cl)c(C(F)(F)F)c2)CCN(CCCC(c2ccc(F)cc2)c2ccc(F)cc2)CC1 -91.5%
COc1ccc(OC)c(NC(=O)CN2C(=O)CC(c3ccco3)Sc3ccccc32)c1 (stereo unspecified) -32.7%
